Reference: PubChem BioAssay AID624417 (National Center for Advancing Translational Sciences (NCATS), 2012)
The whole screen tested about 410,000 compounds, of which about 6,400 (1.6%) were called active. This list was built around the results that the source calls inconclusive (neither active nor inactive); the mix of calls is not that of the screen. The call rests on the fitted dose curve; in most records, active means well fitted inhibition curve with a large enough effect; inconclusive means small, poorly fitted or top-dose-only effect; inactive means no such curve, though single readings can be large or run the other way. No potency is given beside an inconclusive call; the fits are too rough.

target: Glucagon-like peptide 1 receptor (Homo sapiens) (UniProt P43220); assay: qHTS of GLP-1 Receptor Inverse Agonists (Inhibition Mode); conditions: HEK293 GLP-1R CRE-luciferase, luminescence, 24 h, GLP-1R form is constitutively active; series mostly up to 38.3 µM; further: nearly all actives have a fitted effect of over 55% in size
Sequence of UniProt P43220 (P43220 whole entry, looked up): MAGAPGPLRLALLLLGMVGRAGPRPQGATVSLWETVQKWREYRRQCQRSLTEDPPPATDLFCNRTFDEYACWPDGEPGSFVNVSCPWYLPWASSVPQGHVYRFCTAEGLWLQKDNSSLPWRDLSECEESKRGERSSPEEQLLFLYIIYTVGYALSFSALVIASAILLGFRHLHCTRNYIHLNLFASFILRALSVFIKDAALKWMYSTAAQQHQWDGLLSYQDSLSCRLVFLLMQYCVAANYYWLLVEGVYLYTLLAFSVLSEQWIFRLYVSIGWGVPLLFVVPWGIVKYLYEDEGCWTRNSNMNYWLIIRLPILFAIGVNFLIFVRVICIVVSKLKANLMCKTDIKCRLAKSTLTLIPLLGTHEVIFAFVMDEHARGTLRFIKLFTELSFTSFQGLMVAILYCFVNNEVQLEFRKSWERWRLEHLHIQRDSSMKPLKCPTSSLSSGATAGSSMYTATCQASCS
Outline: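 GLP-1R inverse agonism mode: basal reporter luminescence in engineered HEK293 cells measured after one day of compound exposure at 37 deg C, with a 12 min room-temperature detection step.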
Potency means the concentration at half of the fitted maximal effect; tags describe the fitted curve by direction and shape.

Row | SMILES | Potency
1 | CC1CC(C)CN(CCC(=O)Nc2ccc3c(c2)CCC3)C1 (stereo unspecified) | inconclusive [inhibitor, single point]
2 | COc1cc(NC(=O)NCC2CCN(Cc3ccc(C)cc3)CC2)cc(OC)c1OC | inconclusive [inhibitor, single point]
3 | O=c1c(Oc2ccccc2Br)c(C(F)(F)F)oc2c(CN3CCCC3)c(O)ccc12 | inconclusive [inhibitor, partial curve, poor fit]
4 | O=C(Nc1ccc(F)cc1)c1ccc(S(=O)(=O)N2CCCC2)cc1 | inactive
5 | CC(=O)N1CCC2(CC1)OC(=O)C(C)=C2C(=O)NCc1cccc(Cl)c1 | inactive
6 | COCCNCCCOc1ccc(Br)cc1Cl | inactive
7 | COc1ccc(Br)c(-c2nc(CS(=O)(=O)c3ccc(F)cc3)no2)c1 | inconclusive [inhibitor, single point]
8 | Clc1ccccc1NN(Cc1ccccn1)c1ccccc1Cl | inconclusive [inhibitor, partial curve, poor fit]
9 | CN1/C(=C\C(=O)C[n+]2ccc3ccccc3c2)C(C)(C)c2ccccc21 | inconclusive [inhibitor, partial curve, poor fit]
10 | Nc1cc2c(cc1[N+](=O)[O-])-c1ccccc1C2=NO | inconclusive [inhibitor, single point]
11 | CCCCN(CC)Cc1ccc(CNC(=S)Nc2ccc(C)cc2Cl)o1 | inconclusive [inhibitor, partial curve, poor fit]
12 | C=CC(=O)Nc1ccc(Nc2ccnc(Nc3ccc(N4CCN(C)CC4)cc3)n2)cc1 | inconclusive [inhibitor, single point]
13 | O=C(O)CCc1nnc2cnc3ccccc3n12 | inactive
14 | CC(C)c1ccccc1OCC(=O)N1CCCCCCC1 | inconclusive [inhibitor, partial curve, poor fit]
15 | CCc1nc2ccc(C(=O)Nc3cc(-c4ccccc4)ccc3OC)cn2c1N(CC)CCN(C)C | inconclusive [inhibitor, partial curve, poor fit]
16 | Cc1nc(Sc2ccc(Br)cc2)c(C#N)c(C)c1[N+](=O)[O-] | inconclusive [inhibitor, single point]
17 | CCn1c2ccccc2c2cc(NC(=O)CSc3nnc(-c4cccc(OC)c4)n3N)ccc21 | inactive
18 | CCOC(=O)c1[nH]c2cc3c(cc2c1NC(=O)CN1CCN(CCO)CC1)OCO3 | inactive
19 | C[C@]12c3[nH]c4cc(-c5ccco5)ccc4c3CCN1C(=O)[C@@H](CC(=O)NCc1ccco1)C[C@@H]2C(=O)N1CCCCC1 | inconclusive [inhibitor, single point]
20 | Cc1cc(C(=O)CN2C(=O)NC(C)(c3ccc(F)c(F)c3)C2=O)c(C)n1C1CC1 (stereo unspecified) | inconclusive [inhibitor, partial curve, poor fit]
21 | CCCCOc1ccc(CCC(=O)N/N=C/c2ccco2)cc1 | inconclusive [inhibitor, single point]

Row | SMILES | Potency
22 | Nc1ccc2nc(-c3ccc(O)cc3)sc2c1 | inconclusive [inhibitor, single point]
23 | CCC(=O)NC(c1ccc(N(C)C)cc1)c1c(O)ccc2ccccc12 (stereo unspecified) | inconclusive [inhibitor, partial curve]
24 | CCOC(=O)c1cc(-c2ccccc2)n(CCC(=O)Nc2cc(C)cc(C)c2)c1C | inconclusive [inhibitor, partial curve, poor fit]
25 | COc1ccc(NC(=O)CC2C(=O)N(c3ccc(F)cc3)C(=O)N2CCc2sccc2C)cc1 (stereo unspecified) | inconclusive [inhibitor, single point]
26 | COc1cc(NC(=O)c2cc(Cl)ccc2Cl)ccc1-c1cc2ccccc2oc1=O | inactive
27 | CC(C(=O)Nc1ccc([N+](=O)[O-])cc1)N1CCN(C/C=C/c2ccccc2)CC1 (stereo unspecified) | inconclusive [inhibitor, partial curve, poor fit]
28 | COc1ccc(OC)c(NC(=O)Nc2nc(C(N)c3ccccc3Cl)cs2)c1 (stereo unspecified) | inconclusive [inhibitor, single point]
29 | O=C(CCSCCc1ccccn1)Nc1ccc(Br)cc1F | inconclusive [inhibitor, single point]
30 | COc1cccc(C(=O)N(C)CC2CCN(CCc3cccc(C(F)(F)F)c3)CC2)c1 | inconclusive [inhibitor, single point]
31 | OC(CNCCc1ccc(Cl)cc1)COc1cc(Cl)ccc1Cl (stereo unspecified) | active: 10 µM
32 | CC(C)CC1NC(=O)N(CC(=O)Nc2ccc(-c3ccccc3)cc2)C1=O (stereo unspecified) | inconclusive [inhibitor, partial curve, poor fit]
33 | COc1ccccc1OCCN(C#N)c1nc(N(C)C)nc(N(C)C)n1 | inconclusive [inhibitor, single point]
34 | Clc1ccc(Cl)c(OCCCCN2CCCCC2)c1 | inconclusive [inhibitor, partial curve, poor fit]
35 | COC(=O)c1c(NC(=O)COc2ccc(Cl)cc2Cl)sc2c1CC(C)(C)NC2(C)C | inconclusive [inhibitor, full curve, poor fit]
36 | CCOC(=O)CSc1ccc2nnc(-c3ccccc3)n2n1 | inactive
37 | CC1(C(=O)NS(=O)(=O)c2ccc(Cl)s2)CCN1C(=O)Cc1ccc(Cl)cc1Cl (stereo unspecified) | inactive
38 | Cc1ccc(S(=O)(=O)N2CCC(C(=O)OCC(=O)N(Cc3ccccc3)C(C)(C)C)CC2)cc1C | inconclusive [inhibitor, partial curve, poor fit]
39 | COc1cccc(NC(=O)c2sc3nc4n(c(=O)c3c2C)CCC4)c1 | inactive
40 | O=C(COc1ccc(F)cc1)Nc1c(C(=O)N2CCC(N3CCCCC3)CC2)oc2ccccc12 | inconclusive [inhibitor, single point]
41 | CCc1cccc(NC(=O)C2CCCN(S(=O)(=O)c3cccnc3)C2)c1 (stereo unspecified) | inconclusive [inhibitor, partial curve]
